This is an account of results in PubChem BioAssay AID1745853 (National Center for Advancing Translational Sciences (NCATS), 2022).

This is one part of the list. Shown are side measurements of this screen, not its main read-out; they come without a call.

Experiment in all cases: Primary Screen for Target Class Profiling of Small Molecule Inhibitors of Methyltransferases
Experiment [1] addresses Glycine N-methyltransferase (Homo sapiens) (UniProt Q14749). To be noted: purified enzyme, MTase-Glo SAH luminescence; measured here: GNMT inhibition; at 40 µM; stronger effect = lower value. A digest of the protocol: (§1)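 Each enzyme was reacted with SAM and its substrate, with compounds tested once at 40 uM; SAH formed was read by MTase-Glo luminescence.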
Experiment [2] has as its target Guanidinoacetate N-methyltransferase (Homo sapiens) (UniProt Q14353). The settings on record: purified enzyme, MTase-Glo SAH luminescence; measured here: GAMT inhibition; at 40 µM; stronger effect = lower value. A digest of the protocol: as §1
The target in experiment [3] is Histamine N-methyltransferase (Homo sapiens) (UniProt P50135). To be noted: purified enzyme, MTase-Glo SAH luminescence; measured here: HNMT inhibition; at 40 µM; stronger effect = lower value. A digest of the protocol:
as §1

Experiment [4] has as its target Nicotinamide N-methyltransferase (Homo sapiens) (UniProt P40261). The settings on record: purified enzyme, MTase-Glo SAH luminescence; measured here: NNMT inhibition; at 40 µM; stronger effect = lower value. A digest of the protocol:
as §1

Experiment [5] addresses Phenylethanolamine N-methyltransferase (Homo sapiens) (UniProt P11086). To be noted: purified enzyme, MTase-Glo SAH luminescence; measured here: PNMT inhibition; at 40 µM; stronger effect = lower value. A digest of the protocol: as §1
On the % scale 0 is the no-effect control and ±100 the full control effect.

With `COC(=O)c1ncn2c1C(=O)N(c1ccc(OC)c(OC)c1)C(C)(C(=O)NC1CCCC1)C2` (stereo not given), the activity change, negative = inhibition was 3.91% in experiment [1]; 4.34% in experiment [2]; -4.27% in experiment [3]; 1.66% in experiment [4]; -0.407% in experiment [5].

As for `CC1(C(=O)NC2CCCCCCC2)Cn2c(cc3occc32)C(=O)N1Cc1ccccc1` (stereo not given), the activity change, negative = inhibition in experiment [1] was 0.537%; in experiment [2] it was 2.21%; in experiment [3], 8.17%; in experiment [4] it was -10.1%; in experiment [5] it was 2.35%.

For `CNC1CCC(N(Cc2cccc(-c3ccncc3)c2)C(=O)c2sc3c(F)ccc(F)c3c2Cl)CC1` (stereo not given), the activity change, negative = inhibition in experiment [1] was -6.45%; in experiment [2], 6.08%; in experiment [3], -20.2%; in experiment [4] it was -79.8%; in experiment [5], -3.3%.

In the case of `CC(C)c1cc2c(c(O)c1O)[C@@]13CCCC(C)(C)C1[C@@H](O)[C@@H]2OC3=O` (stereo not given in full), the activity change, negative = inhibition in experiment [1] was -1.07%; in experiment [2], 4.17%; in experiment [3], 7.54%; in experiment [4], -11.2%; in experiment [5], 2.61%.

In the case of `CC(C)OCCCNC(=O)C1(C)Cn2c(cc3ccccc32)C(=O)N1Cc1ccccc1Cl` (stereo not given), the activity change, negative = inhibition amounted to 6.85% in experiment [1]; 0.995% in experiment [2]; 7.86% in experiment [3]; 0.103% in experiment [4]; 4.9% in experiment [5].

Consider `CC1(C(=O)NC2CCCCC2)Cn2c(cc3ccccc32)C(=O)N1Cc1ccccc1` (stereo not given), for which the activity change, negative = inhibition was -9.8% in experiment [1]; -1.71% in experiment [2]; -5.58% in experiment [3]; -14.1% in experiment [4]; -4.71% in experiment [5].

Regarding `CC(C)OCCCn1c(=O)c2ccccc2n2c(-c3cc(Cl)ccc3O)nnc12`, the activity change, negative = inhibition in experiment [1] is -7.9%; in experiment [2], 5.87%; in experiment [3], -2.08%; in experiment [4], 4.6%; in experiment [5], -6.18%.

Consider `CN1C[C@H]2CN(C(=O)c3cccnc3)CCN2C1=O`, for which the activity change, negative = inhibition was -0.332% in experiment [1]; 0.016% in experiment [2]; 1.3% in experiment [3]; 1.06% in experiment [4]; 4.84% in experiment [5].

For `CCCN1C(=O)c2c(C(=O)NCCc3cccs3)ncn2CC1(C)C(=O)NC1CCCC1` (stereo not given), the activity change, negative = inhibition was found to be 1.51% in experiment [1]; 0.4% in experiment [2]; 3.41% in experiment [3]; 3.5% in experiment [4]; 4.58% in experiment [5].

In the case of `CCCn1c(=O)c2ccccc2n2c(=O)n(CC(=O)Nc3ccc(F)cc3)nc12`, the activity change, negative = inhibition in experiment [1] is 1.63%; in experiment [2] it was 0%; in experiment [3], 7.14%; in experiment [4], -1.73%; in experiment [5], 3.31%.

Regarding `CC(C)(C)c1cc2n(n1)CC(C)(C(=O)NC1CCCCC1)N(Cc1ccccc1F)C2=O` (stereo not given), the activity change, negative = inhibition is -4.08% in experiment [1]; 1.7% in experiment [2]; 0.682% in experiment [3]; 1.89% in experiment [4]; -2.16% in experiment [5].

Turning to `CCOc1ccc(CCNC(=O)Cn2ccc3cc(S(=O)(=O)N4CCC(C)CC4)ccc32)cc1`, the activity change, negative = inhibition is 6.88% in experiment [1]; 0% in experiment [2]; 6.03% in experiment [3]; 1.76% in experiment [4]; 1.24% in experiment [5].

In the case of `CC1(C(=O)NC2CCCCC2)Cn2c(cc3sccc32)C(=O)N1CCCN1CCOCC1` (stereo not given), the activity change, negative = inhibition in experiment [1] came out at 4.05%; in experiment [2], 0.748%; in experiment [3] it was 4.13%; in experiment [4] it was 8.67%; in experiment [5] it was 1.61%.

Take `CNC(=O)c1cc(Oc2ccc(NC(=O)Nc3ccc(Cl)c(C(F)(F)F)c3)cc2)ccn1`: the activity change, negative = inhibition was -5.72% in experiment [1]; -14.4% in experiment [2]; 3.19% in experiment [3]; -36% in experiment [4]; -5.09% in experiment [5].

Regarding `COc1cc2nc(C3CC3)nc(N3CCN(c4ccccc4OC)CC3)c2cc1OC`, the activity change, negative = inhibition in experiment [1] is -9.15%; in experiment [2], 3.7%; in experiment [3], -13.3%; in experiment [4] it was -30.5%; in experiment [5], -4.83%.

In the case of `CNC(=O)c1ccccc1Nc1cc(Nc2ccc(N3CCOCC3)cc2OC)ncc1C(F)(F)F`, the activity change, negative = inhibition in experiment [1] is -12.8%; in experiment [2], -12%; in experiment [3] it was -3.77%; in experiment [4], -32.6%; in experiment [5], -25.8%.

With `COc1cccc(-c2cc(-c3cccs3)nc3c(C)noc23)c1`, the activity change, negative = inhibition is -4.27% in experiment [1]; -2.29% in experiment [2]; -1.76% in experiment [3]; -1.75% in experiment [4]; -5.71% in experiment [5].

Take `C=C1CCC2C(C)(C(=O)OC)CCCC2(C)C1CCC(C)CC(=O)O` (stereo not given): the activity change, negative = inhibition is 0% in experiment [1]; -0.68% in experiment [2]; 0.996% in experiment [3]; -25.6% in experiment [4]; -2% in experiment [5].

Consider `CCc1cccc(N2C(=O)Cn3cccc3C2C(=O)NC2CCC(C)CC2)c1` (stereo not given), for which the activity change, negative = inhibition is -0.445% in experiment [1]; 0% in experiment [2]; 1.2% in experiment [3]; 7.39% in experiment [4]; -1.88% in experiment [5].

In the case of `O=C(Cn1ccc2cc(S(=O)(=O)N3CCCC3)ccc21)NCCc1ccccc1Cl`, the activity change, negative = inhibition in experiment [1] was -0.422%; in experiment [2], 2.6%; in experiment [3], 0.254%; in experiment [4] it was -6.83%; in experiment [5], -19.4%.

`O=C(CCc1nnc2n(Cc3ccccc3Cl)c(=O)c3ccccc3n12)NCCCN1CCOCC1`: the activity change, negative = inhibition in experiment [1] was -6.99%; in experiment [2], 0.384%; in experiment [3], -2.42%; in experiment [4] it was 13.4%; in experiment [5] it was 3.58%.

Consider `O=C(Nc1cccc(C(=O)Nc2ccc(S(=O)(=O)O)c3cc(S(=O)(=O)O)cc(S(=O)(=O)O)c23)c1)Nc1cccc(C(=O)Nc2ccc(S(=O)(=O)O)c3cc(S(=O)(=O)O)cc(S(=O)(=O)O)c23)c1`, for which the activity change, negative = inhibition in experiment [1] is -8.03%; in experiment [2], 15.5%; in experiment [3], 14%; in experiment [4], -3.48%; in experiment [5], 0.629%.

For `COc1cc2c(c(OC)c1CC=C(C)C)C[C@H](c1ccc(O)c(CC=C(C)C)c1O)CO2`, the activity change, negative = inhibition in experiment [1] was -3.38%; in experiment [2], -20.6%; in experiment [3], -0.456%; in experiment [4], -29.7%; in experiment [5], -3.26%.

Take `Cc1ccc(S(=O)(=O)Cc2nc(-c3ccc(C(=O)NCc4cccnc4)cc3)oc2C)cc1`: the activity change, negative = inhibition is -18.2% in experiment [1]; -7.5% in experiment [2]; -14.2% in experiment [3]; -26.6% in experiment [4]; -21.2% in experiment [5].

Take `O=C(c1cncs1)N1CCc2c(cc(-c3cccc(F)c3)c(=O)n2CCN2CCCCC2)C1`: the activity change, negative = inhibition was -5.65% in experiment [1]; -8.21% in experiment [2]; -5.66% in experiment [3]; -8.16% in experiment [4]; 3.9% in experiment [5].

For the molecule `O=C(N[C@H]1CCN2C(=O)c3ccccc3NC(=O)[C@H]12)c1cccc(F)c1`, the activity change, negative = inhibition is -3.61% in experiment [1]; -4.38% in experiment [2]; -2.98% in experiment [3]; -9.38% in experiment [4]; -6.65% in experiment [5].

Consider `CC/C(=C(\c1ccc(O)cc1)c1ccc(OCCNC)cc1)c1ccccc1`, for which the activity change, negative = inhibition in experiment [1] was 3.11%; in experiment [2], 5.35%; in experiment [3], -7.78%; in experiment [4], -21%; in experiment [5] it was 4.62%.

In the case of `CS(=O)(=O)N1CCCOCCNC(=O)[C@@H]2CCC[C@@H]21`, the activity change, negative = inhibition is -0.753% in experiment [1]; -0.112% in experiment [2]; 0.253% in experiment [3]; 1.66% in experiment [4]; -0.658% in experiment [5].

On to `CN1CCN(Cc2nc(C3(O)CCN(Cc4ccccc4C(F)(F)F)CC3)cs2)CC1`, for which the activity change, negative = inhibition was -1.66% in experiment [1]; -2.89% in experiment [2]; -4.72% in experiment [3]; -4.02% in experiment [4]; -16.2% in experiment [5].

With `CC(=O)N1CCN(C(=O)c2cnc(N)nc2-c2ccccc2)CC(O)C1` (stereo not given), the activity change, negative = inhibition in experiment [1] is -0.341%; in experiment [2] it was 1.66%; in experiment [3], 1.4%; in experiment [4] it was 0.144%; in experiment [5], 8.98%.
